Assay results: PMC4336329 (PLoS ONE, 2015)
The whole screen tested about 310,000 compounds, of which about 14,000 (4.5%) showed an effect of 50% or more. Effects have a minus sign here. Some of the results follow.

target: human ether-à-go-go-related gene (hERG) potassium channel (human, UniProt Q12809); assay: primary screen, population patch clamp on CHO cells stably expressing hERG
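Note: peak tail current of the secondary pulse compared with the same well before compound.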

Chain of human ether-à-go-go-related gene (hERG) potassium channel (Q12809 whole entry, looked up): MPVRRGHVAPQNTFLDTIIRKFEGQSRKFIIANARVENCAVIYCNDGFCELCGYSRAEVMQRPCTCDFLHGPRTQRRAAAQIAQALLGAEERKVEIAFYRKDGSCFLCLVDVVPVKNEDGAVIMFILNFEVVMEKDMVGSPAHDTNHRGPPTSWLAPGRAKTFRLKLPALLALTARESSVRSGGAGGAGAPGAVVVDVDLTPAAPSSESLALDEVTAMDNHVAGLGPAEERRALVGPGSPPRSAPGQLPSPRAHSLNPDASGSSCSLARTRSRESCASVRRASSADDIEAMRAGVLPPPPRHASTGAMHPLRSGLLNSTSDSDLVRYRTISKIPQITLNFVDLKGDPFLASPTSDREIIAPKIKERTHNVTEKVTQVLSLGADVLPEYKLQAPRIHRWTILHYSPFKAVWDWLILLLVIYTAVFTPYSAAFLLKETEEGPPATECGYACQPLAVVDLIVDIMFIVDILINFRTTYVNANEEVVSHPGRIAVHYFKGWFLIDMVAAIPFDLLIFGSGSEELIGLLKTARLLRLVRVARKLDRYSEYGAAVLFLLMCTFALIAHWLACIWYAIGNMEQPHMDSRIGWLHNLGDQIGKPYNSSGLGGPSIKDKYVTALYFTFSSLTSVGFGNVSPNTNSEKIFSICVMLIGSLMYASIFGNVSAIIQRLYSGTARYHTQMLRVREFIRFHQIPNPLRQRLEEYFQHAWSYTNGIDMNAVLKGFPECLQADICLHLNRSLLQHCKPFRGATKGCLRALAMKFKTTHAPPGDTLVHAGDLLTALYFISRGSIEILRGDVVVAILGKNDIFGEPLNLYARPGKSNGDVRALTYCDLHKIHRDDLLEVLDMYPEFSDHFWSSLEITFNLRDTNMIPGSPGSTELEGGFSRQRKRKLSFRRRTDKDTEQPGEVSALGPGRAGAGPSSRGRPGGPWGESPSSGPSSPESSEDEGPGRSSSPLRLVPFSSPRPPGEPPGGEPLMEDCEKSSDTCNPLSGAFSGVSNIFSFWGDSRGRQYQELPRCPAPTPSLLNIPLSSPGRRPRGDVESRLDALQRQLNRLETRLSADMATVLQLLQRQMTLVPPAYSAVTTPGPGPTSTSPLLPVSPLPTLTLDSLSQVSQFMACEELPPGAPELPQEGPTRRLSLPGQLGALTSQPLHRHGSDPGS

Structure (SMILES) | hERG current change (%, negative = inhibition) at 10uM [%]
CCOc1ccc(Nc2nc(NCc3ccco3)nc(N)c2[N+](=O)[O-])cc1 | 8
O=C(c1ccco1)N1CCN(C(=O)C(Sc2ccccc2)c2ccccc2)CC1 (centres unmarked) | -33.1
CSCCC1NC(=O)N(CC(=O)Nc2ccc(Br)cc2Br)C1=O (centres unmarked) | -27.3
CCOC(=O)N1CCN(S(=O)(=O)c2ccc3[nH]c(=O)sc3c2)CC1 | 2.33
COC(=O)c1ccc(OCCOc2ccccc2C)cc1 | 5
CCCOc1ccc(/C=C/C(=O)Nc2ccc([N+](=O)[O-])cc2)cc1 | 7.23
COc1ccccc1NNC(=O)C(O)(c1ccccc1)c1ccccc1 | -0.163
C=C(C)Cn1c(CCNC(=O)c2ccco2)nc2ccccc21 | -21.4
O=C(CSc1ccccc1)OCC(=O)N1CCN(C(=O)c2ccco2)CC1 | -27
CN(Cc1cn(C)nc1-c1ccccc1F)CC1CCN(Cc2ccccc2)CC1 | -15.6
CCCS(=O)(=O)Nc1cccc(-c2nc3cccnc3s2)c1 | 9.28
CCCN1C2CCCC1CC(NC(=O)C1CCCCC1)C2 (centres unmarked) | 2.01
Cc1ccc(S(=O)(=O)NC(=O)Nc2nnc(C3CC3)s2)cc1 | -7.17
COC(=O)COc1cccc(NC(=O)c2ccc(Cl)cc2)c1 | 0.783
CC1C(=O)N2CCCc3cc(S(=O)(=O)N(C)c4ccccc4)cc1c32 (centres unmarked) | 6.6
CCn1cc(C(=O)OCC(=O)NCc2ccc3c(c2)OCO3)c(=O)c2ccc(C)nc21 | -7.47
Cc1ccc(NC(=O)CS(=O)CC(=O)NCCCN(C)c2ccccc2)cc1 (centres unmarked) | -2.26
Cl.N=c1c2c(n(Cc3ccccc3)c3c1CCC3)CCC2 | -0.485
CCOc1ccc(-c2ncncc2-c2ccc(OC)cc2)c(O)c1 | -19.3
O=C(c1c(F)c(F)c(F)c(F)c1F)N1CCN(Cc2ccc3c(c2)OCO3)CC1 | 7.68
CC(C)C[C@H](NC(=O)c1[nH]cnc1C(=O)N[C@@H](C)c1ccccc1)C(=O)OC(C)(C)C | 12.5
CCOc1ccccc1N(CC(=O)Nc1ccc2c(c1)OCO2)S(C)(=O)=O | 1.48
O=c1[nH]c2cc3c(cc2cc1C(c1nnnn1Cc1ccccc1)N1CCN2CCCC2C1)OCCO3 (centres unmarked) | -0.778

Structure (SMILES) | hERG current change (%, negative = inhibition) at 10uM [%]
O=S1(=O)CCN(Cc2ccccn2)CC1 | 0.269
O=C1/C(=C/c2ccccc2)CSc2sccc21 | -16.1
CC(C)Cc1nnc(NC(=O)CCC(=O)N2CCN(c3ccc(F)cc3)CC2)s1 | 1.08
NS(=O)(=O)c1ccc(NC(=O)C2COc3ccccc3O2)cc1 (centres unmarked) | 0.967
COc1ccc(S(=O)(=O)N2CCOC2CNC(=O)C(=O)NCc2ccccn2)cc1 (centres unmarked) | -7.6
Cc1nc2ccccn2c1C(=O)N/N=C/c1ccccc1[N+](=O)[O-] | 2.26
O=S(=O)(c1ccccc1)c1cnc(-c2cccnc2)nc1-c1ccc(Cl)cc1Cl | -6.25
Cc1csc(NC(=O)c2cc[n+]([O-])cc2)n1 | -18.7
COc1ccc2[nH]cc(CCNC(=O)C3CCCCC3)c2c1 | 9.26
COc1cccc(Nc2c(Nc3cccc(OC)c3)c(=O)c2=O)c1 | 36.4
N/C(=N\OC(=O)CCCc1ccccc1)c1cccc([N+](=O)[O-])c1 | -3.9
CCc1cc2c(=O)[nH]c(N3CCOCC3)nc2s1 | -2.01
CCC(C)c1ccccc1NC(=O)CN1CCN(C/C=C/c2ccccc2)CC1 (centres unmarked) | -60.4
CCCCCCC(=O)Nc1c(O)c2ccccc2[nH]c1=O | 14.7
O=C(O)Cn1nc(-c2ccccc2)oc1=O | -1.35
CCOC(=O)N1CCN(CC(O)c2ccc3c(c2)CCN3)CC1 (centres unmarked) | 1.32
COc1cccc(CNC(=O)CCc2nc3cc(S(=O)(=O)N4CCOCC4)ccc3n2C)c1 | 6.47
CSc1ccccc1C(=O)N1CCN(S(=O)(=O)c2sc(C(=O)O)c(C)c2C(=O)O)CC1 | -2.5
COc1ccc(OCCOC(=O)c2ccc(-n3cnnn3)cc2)cc1 | -15.9
Cc1cc(NC(=O)COn2nnc3ccc(S(C)(=O)=O)cc32)ccc1Br | -25.6
CCCCCCOc1ccc(N2C(=O)CC(N3CCN(C(=O)c4ccco4)CC3)C2=O)cc1 (centres unmarked) | -7.66
CCN1c2ccccc2-c2nc3ccccc3n2C1c1ccco1 (centres unmarked) | -16.4
NS(=O)(=O)c1cnccc1NCCc1ccccc1 | 9.56

Structure (SMILES) | hERG current change (%, negative = inhibition) at 10uM [%]
O=C(NNC(=O)c1ccc(Cl)cc1Cl)Nc1ccccc1 | 5.05
COc1ccc(CNC(=O)NS(=O)(=O)c2ccc(C)cc2)cc1 | -8.46
O=C(C1CCCCC1)N1CCN=C1SCc1cccc([N+](=O)[O-])c1 | -40.6
Cc1cccc(C(C)C)c1NC(=O)C(C)OC(=O)Cc1n[nH]c(=O)c2ccccc12 (centres unmarked) | 10.1
Cc1nn(CC(=O)Nc2ccc(Cl)cc2)c(=O)c2cc(-c3ccccc3)nn12 | 18
COc1cc2cnc(-c3ccccc3)c(-c3ccc([N+](=O)[O-])cc3)c2cc1OC | 3.36
COc1ccc(/C=N/NC(=O)c2sccc2C)c2ccccc12 | 15.7
COc1ccccc1/C=C1\S/C(=N/NC(=O)c2cccc(Br)c2)NC1=O | 13.1
Cc1ccc(-n2c(Cc3cccn3C)nnc2SCC(=O)NC2CCCCC2)cc1 | -29.9
CC(C)CNc1nc(NC(C)(C)C)nc(Oc2ccc(=O)[nH]n2)n1 | 9.66
Cc1cc(C)nc(NC(=S)Nc2ccccc2)n1 | 2.61
O=C(Nc1cccc(S(=O)(=O)N2CCCCC2)c1)c1ccc2ncsc2c1 | -11.6
CCC(CC)=NNc1ccc(S(N)(=O)=O)cc1[N+](=O)[O-] | -7.15
CCOc1ccc(NC(=O)COc2ccc(S(=O)(=O)N3CCCC3)cc2)cc1 | 14.8
CSc1ncccc1C(=O)OCc1ccc(Br)cc1 | 19.3
COc1cc(OC)c2c(O)c3c(c(-c4c5c(c(O)c6c(OC)cc(OC)cc46)CO[C@@H](C)[C@H]5O)c2c1)[C@H](O)[C@H](C)OC3 | 7.77
CCn1c(O)c(/C=N/n2cnnc2)sc1=S | -1.4
COc1cc(-c2noc(C)n2)cc(OC)c1OC | 13.4
COC(=O)c1c(NC(=O)c2nc3ccccc3s2)sc2c1CC(C)(C)NC2(C)C | -1.04
CC(=O)Nc1nc(C)c(Oc2ccccc2)c(=O)[nH]1 | -1.89
Cc1ccc(-c2nnn(CC(=O)N(CC3CCCO3)C(C(=O)NC3CCCC3)c3ccc(O)cc3)n2)o1 (centres unmarked) | 0.14
CCn1cc(-c2cc(C(=O)O)c3ccccc3n2)cn1 | 27.3
O=C(Nc1nnc2n1CCS2)c1ccco1 | 18.9

Structure (SMILES) | hERG current change (%, negative = inhibition) at 10uM [%]
COC(=O)CSc1nc2ncc(Cl)cc2[nH]1 | -10.3
Cc1ccc(C(=O)Nc2ncccc2C)cc1S(=O)(=O)N1CCOCC1 | 1.75
CCc1ccc(NC(=O)C2CC(=O)N(C(C)C)C2)cc1 (centres unmarked) | 7.1
CCO.CCn1c(COc2ccc3c(c2)OCO3)nnc1SCC(=O)O | -0.394
COc1ccccc1C1NC(=O)NC(C)=C1C(=O)OC1CCCCC1 (centres unmarked) | 6.66
O=C(COC(=O)c1cncc(Br)c1)NCc1ccccc1Cl | 21.6
COC(=O)C1=C(O)/C(=C\c2cc(C)n(-c3ccc(F)cc3)c2C)N=C1C | -25.5
COC(=O)c1c(NC(=O)Cc2ccccc2)sc(C)c1C | 0.768
CC(C)C(C)NC(=O)CN1C(=O)NC2(CCc3ccccc32)C1=O (centres unmarked) | 2.6
CN(C)S(=O)(=O)c1ccc(C(=O)NCc2nc3ccccc3s2)cc1 | 1.24
COc1ccc(-n2ncc3c(SCC(=O)NNC(C)=O)ncnc32)cc1 | 18.5
COc1cccc(NC(=O)COc2ccc3c(c2)CCC3)c1 | 2.74
O=C(O)c1cccc2c1C(=O)c1cccc3snc-2c13 | -0.646
COc1cccc(NC(=O)CN(C)C(=O)c2c(C)noc2C)c1 | -18.2
N/C(=N\OC(=O)c1cccc(Cl)c1)c1ccccn1 | 19.1
CCOc1ccc(C(=O)NC(=S)Nc2ccc(N3CCCCC3)cc2)cc1[N+](=O)[O-] | 8.37
CC(=O)c1ccc(NC(=S)NC(=O)/C=C/c2ccc(F)cc2)cc1 | 20
COc1ccc(C(=O)N/N=C/c2c(CO)cnc(C)c2O)cc1 | -1.9
O=C(Nc1ccc(F)c(Cl)c1)Nc1cnccn1 | 11.9
S=c1[nH]nc(COc2ccc3c(c2)OCO3)n1-c1ccccc1 | 29.4
